Here are results for two molecules from patent US20240301048A1 (LANIER BIOTHERAPEUTICS, published 2024).

What all share (assay): cell-based or functional assay
The target of assay [1] is T1, VEGF (UniProt P15692-4 27-191, limits assumed).
T1 sequence (looked up): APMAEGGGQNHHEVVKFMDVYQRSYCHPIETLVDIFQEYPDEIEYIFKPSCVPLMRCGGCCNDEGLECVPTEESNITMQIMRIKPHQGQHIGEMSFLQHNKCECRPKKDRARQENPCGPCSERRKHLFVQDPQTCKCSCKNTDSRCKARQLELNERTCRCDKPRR

Assay [2] concerns the target recombinant human IL-17A (R&D Systems) (human, UniProt Q16552 24-155).
The target in assay [3] is T1, VEGF. This is another data set of the same source.

Several values for one entry are separate records, joined by “and”; a condition that tells them apart may be missing. Identical values can stand only once.

Chain of UniProt Q16552 (Q16552 24-155 limits assumed): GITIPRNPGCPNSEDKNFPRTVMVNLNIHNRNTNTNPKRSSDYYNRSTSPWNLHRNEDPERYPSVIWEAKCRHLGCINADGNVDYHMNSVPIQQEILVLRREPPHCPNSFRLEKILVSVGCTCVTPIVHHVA

B1: 652.1 (Fc fusion)
chain: SDTGRPFVEMYSEIPEIIHMTEGRELVIPCRVTSPNITVTLKKFPLDTLIPDGKRIIWDSRKGFIISNATYKEIGLLTCEATVNGHLYKTNYLTHRQTNTIIDVVLSPSHGIELSVGEKLVLNCTARTELNVGIDFNWEYPSSKHQHKKLVNRDLKTQSGSEMKKFLSTLTIDGVTRSDQGLYTCAASSGLMTKKNSTFVRVHEK[human IgG1 Fc not given here]GGGSGGGGSEVQLVESGGGLVQPGGSLRLSCAASGFAFSSYDMSWVRQAPGKGLEWVAYISSGGGNTYYPDTVKGRFTISRDNAKNTLYLQMNSLRAEDTAVYYCAREALTMISTRDYYAMDYWGQGTLVTVSSGGGGSGGGGSGGGGSDIQLTQSPSSLSASVGDRVTITCGASESVDNYGISFMDWYQQKPGKAPKLLIYAASNQGSGVPSRFSGSGSGTDFTLTISSLQPEDFATYYCQQSKEVPYTFGQGTKVEIKR
For the molecule B1, in the assay with VEGF [1], the “VEGF Bioassay Potency (IC50, nM)” value was determined as 1.7 nM. Further, the “IL-17A Bioassay Potency (IC50, nM)” value in assay [2] is 15.8 nM and 10.2 nM.

B2: aflibercept (Fc fusion)
chain: SDTGRPFVEMYSEIPEIIHMTEGRELVIPCRVTSPNITVTLKKFPLDTLIPDGKRIIWDSRKGFIISNATYKEIGLLTCEATVNGHLYKTNYLTHRQTNTIIDVVLSPSHGIELSVGEKLVLNCTARTELNVGIDFNWEYPSSKHQHKKLVNRDLKTQSGSEMKKFLSTLTIDGVTRSDQGLYTCAASSGLMTKKNSTFVRVHEK[human IgG1 Fc not given here]
Consider B2, for which, in the assay with VEGF [3], the “IC50, VEGF bioassay (RLU), column 'Approx. IC50 (nM)' of the legend” value was around 2.2 nM.
